# Experimental data from article PMC10726135.
# The list shows a part of the results. At the low end of the ranking the order means little. Measured with an extract: partners may take part in the binding.
# Biological target: T1, HNF4alpha8 (COS-7 nuclear extract) (UniProt P41235-5)
# T1 sequence: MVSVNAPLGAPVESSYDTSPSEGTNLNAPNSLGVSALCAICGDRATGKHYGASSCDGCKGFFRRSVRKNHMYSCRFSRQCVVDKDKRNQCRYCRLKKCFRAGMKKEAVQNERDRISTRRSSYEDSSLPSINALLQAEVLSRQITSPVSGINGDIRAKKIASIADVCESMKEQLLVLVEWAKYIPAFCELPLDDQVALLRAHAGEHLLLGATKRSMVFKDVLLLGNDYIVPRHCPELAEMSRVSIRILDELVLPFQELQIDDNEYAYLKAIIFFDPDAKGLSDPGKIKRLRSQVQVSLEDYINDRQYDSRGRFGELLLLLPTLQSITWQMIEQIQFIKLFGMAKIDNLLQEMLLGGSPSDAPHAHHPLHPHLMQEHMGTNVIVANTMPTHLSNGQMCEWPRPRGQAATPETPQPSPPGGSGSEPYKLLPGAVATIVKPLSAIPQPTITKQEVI
# Test: protein-binding microarray
# Conditions: COS-7 nuclear extract on double-stranded Agilent 4x180k PBM; binding buffer, salt, pH and temperature not given; high values mean tight binding; double strand, one strand shown; sequences stand for … in …GCCTAGGGAGATTAGAGTATCGGTCGA
row,Sequence,binding signal (log2 normalized intensity)
1,GTGTGGCTTCCAAGGGGAATGTGGATGCTG,-1.31
2,TTCCAGCCAAACCAGGTCATGCATTCTGCT,-1.19
3,TGAACGACTTGACAAAGGTCATTCATGTGC,4.32
4,AGTAAAACTGGAAAATCAAAGACTCAGATG,-1.37
5,AAGTAGTCAGTGTCCAGCACACCTTTTTTT,-0.328
6,TGTCATCCTTTTGCTTAAAACGCCTGCAGA,-1.39
7,TCAAAGGCAGCCTTCGTTTGCTTTTCCTTA,-1.05
8,TCTTCAGAGAGTCTGGCTGACTAACAAGCT,-1.24
9,ATTCCAGAGAAGCACATCCAGGCAGCTTCA,-1.26
10,ATGCCCCTCCCAGGGACACATGCCCCTTCC,5.63
11,ATCCAGTCCTCACCCAGAACTTTGACCGTT,5.26
12,GTACTTTTCTGTTTGTCTTACTGTGTTGTC,1.95
13,TAGTTACCCAAGGGATGGCATCACCTTTGG,1.61
14,CCCTAATCTCACTCTTTGTTATTTATTGGC,1.83
15,AGTCTGTGACTTGATCTTTGACTGGATTCT,2.67
16,CCCTGAGGCCAATGAGGGAAGTTATTAACA,-1.16
17,AGTATTGAGGCCGGAGGGCAGGCGGGCCGC,-1.31
18,GCCTCACTAAGTCCTGCTTAGAGCATCCAA,-1.44
19,ACCTTTGCTCATGTCCTCTTGCTTCCTGGG,1.45
20,CAGGGAGAAGGCAAAAATGCAGGCAATGAA,-1.39
21,AGTATGCAGCGGGCAGCCCGTGTGGGCGGG,-1.23
22,CTGTCACACTTGCCCTTTGCCCTCACTGGT,7.78
23,CAACAAGGTGGAGACCTCTGCAGGAGGACT,-1.33

row,Sequence,binding signal (log2 normalized intensity)
1,AAAGGGACAGGGGTCATCAGGGGTCCTGGC,1.97
2,CACTTGGATAGCGCGTGGCCCAAGGCCTCT,-1.21
3,CAGGGTTGTGCAGGACTGCGTAACTTACAG,-1.39
4,ATCAGAGCAAAGTTCAATTTCCAACAAATG,3.74
5,GCCACCTGAAGGCAGGTGTGGGTTGGGGGT,-1.05
6,ACTTCAAGGTCCATTTGAGGCTAAGTGTAG,1.07
7,TTCCAATCTGGTGAAAGATGATGAGGCGGT,-1.24
8,ACATTGTTAGCATAGCCTATCTGGTGCAGT,0.746
9,GTGAATCCTTAAGATTCCTGCTCTAATGTT,-0.915
10,TCTCTAGATCTCAGTTGGTCCAAGGTACAT,3.61
11,CAGTAACTCACTATCAGGAAACTCTTTCCT,-1.1
12,AGTAGAAGAGCCAAAATGTGTTAGGCAAGC,-1.38
13,TTCTCCTCCAGGACCTTGCCCTTTAGTTAT,4.72
14,CTCAAGGAGGCCCAAAGGAAGGACTTCAGG,-1.35
15,GTATTTTTTCAACATATACTTTGAACTTGT,4.04
16,ATGGAGCTAAACAATTAAAGAACTCTTCAT,-1.16
17,GTTATCTTGGGGCTGATATCTCTCTGGCTG,-1.33
18,GGTAAATATTATCATTGCCTCTGGTATGCA,1.23
19,GGGTTTGGCTCCAAGGCTGAAGGTCTCGAG,0.377
20,GACCTTTGAACACCACAAGTTTGAACTGCA,5.65
21,GTGTGCCCCACTTATCTGCTATTCTGGCAA,-1.34
22,ATAATTCAGTTTCATTGCACTTTGCCCTCT,9.39
23,ATGAGTTCCCGGCAAGCCGACTTACAGGAC,-1.31
